One substance from article PMC8300659 can be followed below.

The data set concerns the target Cys328 (UniProt position 328, VQSLTCEVDAL). Briefly: chemical modification. Conditions: Low, 5 mM buffers with no added salt stated, 5 mM citric acid/disodium phosphate (pH 3-5.5), disodium/monosodium phosphate (pH 6-8), Tris/HCl (pH 8.5-9), sodium carbonate/bicarbonate (pH 9.5-10.8), protein and MBB diluted in 5 mM Pipes/Na pH 7.0, Reduced, DTT-free soluble vimentin, without added zinc, folded (refolded from urea), mixture of oligomeric species possible.

Entries with a single value are a further part of the results.

For Vimentin (Homo sapiens), the pKa came out at 4.61 ± 0.36 (first ionization step) and 7.39 ± 0.41 (second ionization step).

By pKa is commonly meant the negative logarithm of the acid dissociation constant.
